The record followed here is the supplement of paper PMC8728848.

The list shows a part of the results.

What all share (experiment): glycan array binding signal (z-score within array); higher = stronger binding
Holding throughout (settings): glycan notation: IUPAC condensed, linker removed

For test [1], the target named is Neu5Ac9Ac(a2-3)Gal(b1-3)GlcNAc. In a few lines: (§1)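 The Consortium for Functional Glycomics database supplied 3228 glycan arrays, of which those lacking an available protein sequence were dropped. The binding signal, a within-array Z-score, was averaged across arrays of the same protein sequence and across linkers. Negative scores can be read as non-binding.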
Test [2] has as its target Neu5Ac9Ac(a2-3)Gal(b1-4)GlcNAc. An outline of the steps:
as §1

In test [3] the target is Neu5Ac9Ac(a2-6)Gal(b1-4)GlcNAc. In a few lines:
as §1

Test [4] deals with Neu5Gc(a2-3)Gal(b1-3)GlcNAc. An outline of the steps:
as §1

Test [5] has as its target Neu5Gc(a2-3)Gal(b1-3)[Fuc(a1-4)]GlcNAc. In a few lines: as §1
The target in another test is Neu5Gc(a2-3)Gal(b1-4)Glc. In a few lines:
as §1

In test [6] the target is Neu5Gc(a2-3)Gal(b1-4)GlcNAc. In a few lines: as §1
Test [7] deals with Neu5Gc(a2-3)Gal(b1-4)GlcNAc(b1-3)Gal(b1-4)GlcNAc(b1-2)Man(a1-3)[Neu5Gc(a2-3)Gal(b1-4)GlcNAc(b1-3)Gal(b1-4)GlcNAc(b1-2)Man(a1-6)]Man(b1-4)GlcNAc(b1-4)GlcNAc. In a few lines:
as §1

Test [8] deals with Neu5Gc(a2-3)Gal(b1-4)[Fuc(a1-3)]GlcNAc. An outline of the steps: as §1
Test [9] deals with Neu5Gc(a2-6)Gal(b1-4)GlcNAc. In a few lines: as §1
The target in the next test is Neu5Gc(a2-6)GalNAc. An outline of the steps:
as §1

Test [10] has as its target Neu5Gc(a2-8)Neu5Ac(a2-3)Gal(b1-4)GlcNAc. In a few lines: as §1
The target in test [11] is Neu5Gc(a2-8)Neu5Gc(a2-3)Gal(b1-4)GlcNAc. An outline of the steps:
as §1

The target in test [12] is Neu5Gc(a2-8)Neu5Gc(a2-3)Gal(b1-4)GlcNAc(b1-3)Gal(b1-4)GlcNAc. In a few lines: as §1
Test [13] concerns the target Neu5Gc(a2-8)Neu5Gc(a2-6)Gal(b1-4)GlcNAc. In a few lines: as §1
In test [14] the target is Neu5Gc(b2-6)Gal(b1-4)GlcNAc. An outline of the steps:
as §1

B1: CSA (Cytisus scoparius), P29257 (protein)
chain: SEELSFSFTKFKTDQKNLILQRDALITPTGKLQLTTVENGKPAAYSLGRALYSTPIHIWDKSTGDEASFATFFSFVISDAPNPSTAATDGLAFFLAPADTQPQSAGGYLGLFEKDSSYNSSNQIVAVEFDTYYNSAWDPQTNPHIGIDVNTIKSKKVSSWGFKNGNVATVLITYQPSSKSLVASLVYPSGQTSDKTSYIISANVDLKATVPEWVRIGFSATTGQTDNYIETHDILSWSFKSKLPATKN
In the case of B1, the “glycan array binding signal (z-score)” value in test [1] is -0.2; in test [2], -0.06; in test [3] it was -0.199; in test [4], -0.127; in [5] it was -0.202; with Neu5Gc(a2-3)Gal(b1-4)Glc it was -0.173. Besides, the “glycan array binding signal (z-score)” value in test [6] is -0.206; in [7], -0.204; in [8], -0.233; in test [9], -0.197; in the test with Neu5Gc(a2-6)GalNAc, -0.175; in test [10], -0.25. Also, the “glycan array binding signal (z-score)” value in test [11] was -0.227; in test [12], -0.262; in [13], -0.148; in test [14] it was -0.18.
